# Test results from the supplement of paper PMC8728848.
# This is one part of the list.
# Experiments:
# Assay in all cases: glycan array binding signal (z-score within array); higher = stronger binding
# Details in all cases: glycan notation: IUPAC condensed, linker removed
# [1] = target: Gal(b1-3)[Fuc(a1-4)]GlcNAc
# In short: (§1)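 Columns mapping to the same glycan were averaged after glycan names were converted to IUPAC-condensed notation. The data come from 3228 arrays in the Consortium for Functional Glycomics database, limited to those with an available protein sequence. Binding is reported as a within-array Z-score averaged across arrays of one protein sequence and across linkers.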
# [2] = target: Gal(b1-3)[Fuc(a1-4)]GlcNAc(b1-2)Man(a1-3)[Gal(b1-3)[Fuc(a1-4)]GlcNAc(b1-2)Man(a1-6)]Man(b1-4)GlcNAc(b1-4)GlcNAc
# In short: as §1
# [3] = target: Gal(b1-3)[Fuc(a1-4)]GlcNAc(b1-2)Man(a1-3)[Gal(b1-3)[Fuc(a1-4)]GlcNAc(b1-2)Man(a1-6)]Man(b1-4)GlcNAc(b1-4)[Fuc(a1-6)]GlcNAc
# In short: as §1
# [4] = target: Gal(b1-3)[Fuc(a1-4)]GlcNAc(b1-3)Gal(b1-3)[Fuc(a1-4)]GlcNAc
# In short: as §1
# [5] = target: Gal(b1-3)[Fuc(a1-4)]GlcNAc(b1-3)Gal(b1-4)GlcNAc
# In short: as §1
# [6] = target: Gal(b1-3)[Fuc(a1-4)]GlcNAc(b1-3)Gal(b1-4)[Fuc(a1-3)]GlcNAc
# In short: as §1
# [7] = target: Gal(b1-3)[GlcNAc(b1-6)]GalNAc
# In short: as §1
# [8] = target: Gal(b1-3)[Neu5Ac(a2-6)]GalNAc
# In short: as §1
# [9] = target: Gal(b1-3)[Neu5Ac(a2-6)]GlcNAc(b1-6)Gal(b1-4)Glc
# In short: as §1
# [10] = target: Gal(b1-3)[Neu5Ac(b2-6)]GalNAc
# In short: as §1
# [11] = target: Gal(b1-4)GalNAc(a1-3)[Fuc(a1-2)]Gal(b1-4)GlcNAc
# In short: as §1
# [12] = target: Gal(b1-4)GalNAc(b1-3)[Fuc(a1-2)]Gal(b1-4)GlcNAc
# In short: as §1
# Gal(b1-4)Glc = target: Gal(b1-4)Glc
# In short: as §1
# Gal(b1-4)Glc6S = target: Gal(b1-4)Glc6S
# In short: as §1
# Gal(b1-4)GlcNAc = target: Gal(b1-4)GlcNAc
# In short: as §1
# [13] = target: Gal(b1-4)GlcNAc(a1-6)Gal(b1-4)GlcNAc
# In short: as §1
# [14] = target: Gal(b1-4)GlcNAc(b1-2)Man(a1-3)Man(b1-4)GlcNAc(b1-4)GlcNAc
# In short: as §1
# [15] = target: Gal(b1-4)GlcNAc(b1-2)Man(a1-3)[Gal(b1-4)GlcNAc(b1-2)Man(a1-6)]Man(b1-4)GlcNAc(b1-4)GlcNAc
# In short: as §1
# [16] = target: Gal(b1-4)GlcNAc(b1-2)Man(a1-3)[Gal(b1-4)GlcNAc(b1-2)Man(a1-6)]Man(b1-4)GlcNAc(b1-4)[Fuc(a1-6)]GlcNAc
# In short: as §1
# [17] = target: Gal(b1-4)GlcNAc(b1-2)Man(a1-3)[Man(a1-6)]Man(b1-4)GlcNAc(b1-4)GlcNAc
# In short: as §1
# [18] = target: Gal(b1-4)GlcNAc(b1-2)Man(a1-6)Man(b1-4)GlcNAc(b1-4)GlcNAc
# In short: as §1
# [19] = target: Gal(b1-4)GlcNAc(b1-2)Man(a1-6)[Man(a1-3)]Man(b1-4)GlcNAc(b1-4)GlcNAc
# In short: as §1
# [20] = target: Gal(b1-4)GlcNAc(b1-2)[Gal(b1-4)GlcNAc(b1-4)]Man(a1-3)[Gal(b1-4)GlcNAc(b1-2)Man(a1-6)]Man(b1-4)GlcNAc(b1-4)GlcNAc
# In short: as §1
# [21] = target: Gal(b1-4)GlcNAc(b1-3)Gal(b1-3)GlcNAc
# In short: as §1
# [22] = target: Gal(b1-4)GlcNAc(b1-3)Gal(b1-4)Glc
# In short: as §1
# [23] = target: Gal(b1-4)GlcNAc(b1-3)Gal(b1-4)GlcNAc
# In short: as §1
# [24] = target: Gal(b1-4)GlcNAc(b1-3)Gal(b1-4)GlcNAc(b1-3)Gal(b1-4)GlcNAc
# In short: as §1
# [25] = target: Gal(b1-4)GlcNAc(b1-3)Gal(b1-4)[Fuc(a1-3)]GlcNAc(b1-3)Gal(b1-4)[Fuc(a1-3)]GlcNAc
# In short: as §1
# [26] = target: Gal(b1-4)GlcNAc(b1-3)GalNAc
# In short: as §1
# [27] = target: Gal(b1-4)GlcNAc(b1-3)[Gal(b1-4)GlcNAc(b1-6)]Gal(b1-4)GlcNAc
# In short: as §1
binder,measurement,setting,value
"Sialidase (Vibrio cholerae), P37060 (protein) GAMALFDYNATGDTEFDSPAKQGWMQDNTNNGSGVLTNADGMPAWLVQGIGGRAQWTYSLSTNQHAQASSFGWRMTTEMKVLSGGMITNYYANGTQRVLPIISLDSSGNLVVEFEGQTGRTVLATGTAATEYHKFELVFLPGSNPSASFYFDGKLIRDNIQPTASKQNMIVWGNGSSNTDGVAAYRDIKFEIQGDALNGSMALFDYNATGDTEFDSPAKQGWMQDNTNNGSGVLTNADGMPAWLVQGIGGRAQWTYSLSTNQHAQASSFGWRMTTEMKVLSGGMITNYYANGTQRVLPIISLDSSGNLVVEFEGQTGRTVLATGTAATEYHKFELVFLPGSNPSASFYFDGKLIRDNIQPTASKQNMIVWGNGSSNTDGVAAYRDIKFEIQGDLQALGMALFDYNATGDTEFDSPAKQGWMQDNTNNGSGVLTNADGMPAWLVQGIGGRAQWTYSLSTNQHAQASSFGWRMTTEMKVLSGGMITNYYANGTQRVLPIISLDSSGNLVVEFEGQTGRTVLATGTAATEYHKFELVFLPGSNPSASFYFDGKLIRDNIQPTASKQNMIVWGNGSSNTDGVAAYRDIKFEIQGD",glycan array binding signal (z-score),[1],-0.364
same,glycan array binding signal (z-score),[2],-0.451
same,glycan array binding signal (z-score),[3],-0.619
same,glycan array binding signal (z-score),[4],-0.247
same,glycan array binding signal (z-score),[5],-0.548
same,glycan array binding signal (z-score),[6],-0.103
same,glycan array binding signal (z-score),[7],-0.491
same,glycan array binding signal (z-score),[8],0.288
same,glycan array binding signal (z-score),[9],-0.633
same,glycan array binding signal (z-score),[10],-0.328
same,glycan array binding signal (z-score),[11],-0.557
same,glycan array binding signal (z-score),[12],-0.393
same,glycan array binding signal (z-score),Gal(b1-4)Glc,-0.247
same,glycan array binding signal (z-score),Gal(b1-4)Glc6S,-0.075
same,glycan array binding signal (z-score),Gal(b1-4)GlcNAc,-0.398
same,glycan array binding signal (z-score),[13],-0.663
same,glycan array binding signal (z-score),[14],0.793
same,glycan array binding signal (z-score),[15],-0.669
same,glycan array binding signal (z-score),[16],-0.571
same,glycan array binding signal (z-score),[17],-0.659
same,glycan array binding signal (z-score),[18],0.199
same,glycan array binding signal (z-score),[19],0.086
same,glycan array binding signal (z-score),[20],-0.303
same,glycan array binding signal (z-score),[21],0.253
same,glycan array binding signal (z-score),[22],0.066
same,glycan array binding signal (z-score),[23],-0.564
same,glycan array binding signal (z-score),[24],0.602
same,glycan array binding signal (z-score),[25],-0.411
same,glycan array binding signal (z-score),[26],-0.245
same,glycan array binding signal (z-score),[27],-0.333
